Assay results from publication PMC8041205 (2021).

Target: BSA
Assay: ITC

B1: commercially available recombinant MyD88 (natural protein)
chain: MAAGGPGAGSAAPVSSTSSLPLAALNMRVRRRLSLFLNVRTQVAADWTALAEEMDFEYLEIRQLETQADPTGRLLDAWQGRPGASVGRLLELLTKLGRDDVLLELGPSIEEDCQKYILKQQQEEAEKPLQVAAVDSSVPRTAELAGITTLDDPLGHMPERFDAFICYCPSDIQFVQEMIRQLEQTNYRLKLCVSDRDVLPGTCVWSIASELIEKRCRRMVVVVSDDYLQSKECDFQTKFALSLSPGAHQKRLIPIKYKAMKKEFPSILRFITVCDYTNPCTKSWFWTRLAKALSLP
- Kd: > 10 mM
